Reference: the supplement of paper PMC3724861
The list shows a part of the results.

tested on: T1, Caupolican (Caup) homeodomain DNA-binding domain; assay: PBM E-score (8-mer, recovered from the published 9-mer minima) (E-score (dimensionless, -0.5 to 0.5)); Drosophila protein; higher = stronger relative binding preference, active = 0.31 or more
T1 sequence: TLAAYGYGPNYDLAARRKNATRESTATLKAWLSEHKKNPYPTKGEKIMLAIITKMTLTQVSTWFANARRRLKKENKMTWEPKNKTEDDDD
Procedure, shortened: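 Caup's homeodomain DNA-binding domain (residues 214-303) was made by in vitro transcription and translation and applied at 100 nM to custom-designed protein binding microarrays. Each value is an enrichment score that gives relative binding preference for a short DNA word, with higher meaning stronger. The 8-mer values were recovered from published 9-mer scores, each of which was the minimum of its two constituent 8-mer scores. A cutoff of 0.31 marks candidate sites.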

Sequence	PBM E-score
ATGGGGCA	inactive: -0.128
CAACTGAA	inactive: 0.0384
CCGCCGAA	inactive: -0.138
ACCCAGGC	inactive: -0.17
CTCGCAAG	inactive: -0.0376
AGTATTAA	inactive: 0.16
AGTGATGA	inactive: 0.111
GTGAGTTA	inactive: 0.00272
CGCGGGAA	inactive: -0.147
GGACATAA	inactive: 0.211
AGCACCCC	inactive: -0.192
ACATCTAT	inactive: 0.236
CTCCAGAA	inactive: -0.0942
AACAAGTC	inactive: 0.278
CTCGGGGA	inactive: -0.097
AAGACATA	inactive: 0.229
CAACACCC	inactive: 0.104
GTGTTGTA	active: 0.395
AGGCTAAC	inactive: 0.0453
CGGCGGTC	inactive: -0.242
CCTCACTC	inactive: -0.0788
ATAATAAG	inactive: 0.145
TAGTAAGA	≥ 0.156
CTCGCCCC	inactive: -0.264
AACCGGCT	inactive: -0.0645

Sequence	PBM E-score
ACGCTGAT	≥ 0.0517
GTAAAATA	inactive: 0.0769
ATAGCTTG	inactive: 0.0692
GTCAGGAA	inactive: 0.0693
CCACCTTA	inactive: -0.14
CAGTGTCC	inactive: 0.0457
CATTTCCA	inactive: 0.0721
GCTTAAAA	inactive: -0.0795
ATACTGCC	inactive: -0.0107
CGTATAAC	inactive: 0.0722
ACGGCGTC	inactive: -0.143
AATTGGTG	inactive: 0.104
GCGTCCAC	inactive: -0.155
CGATATCC	inactive: 0.0525
AATGAGCG	inactive: 0.00941
AACTGACC	inactive: -0.0913
CGATGTAA	inactive: 0.276
ATACAAGA	active: 0.322
GGATCTAC	inactive: 0.0541
CATCACGG	inactive: -0.0272
ACGCGTAG	inactive: -0.0214
CTCCATCC	inactive: -0.0505
GGTATGGA	inactive: -0.0147
AACAACCA	active: ≥ 0.324
GACTAGGC	inactive: -0.0927

Sequence	PBM E-score
CTAAGCAC	inactive: -0.0341
TCGAAAGA	inactive: -0.0338
CCCAATGA	inactive: 0.0122
AAGGTGCT	inactive: -0.0707
CCCATGTC	inactive: 0.309
CTCCCTTA	inactive: -0.106
ACTAGTGA	inactive: 0.113
ATTAACCC	inactive: 0.0459
TAGAATCA	inactive: 0.0986
CGGGCCAC	inactive: -0.27
CCATCCTA	inactive: -0.044
AAAACTTG	inactive: 0.05
GCTTGGAC	inactive: -0.0623
AGTAGCGC	inactive: -0.062
GGTCGCCA	inactive: -0.204
GCAGCCGC	inactive: -0.318
CTAAATTA	inactive: 0.0334
AATGCGAC	inactive: 0.0137
GCCCAAGC	inactive: -0.199
CACGGGAC	inactive: 0.00904
GCCGAGCC	inactive: -0.204
ACACTCGA	inactive: 0.0207
CGTGCTGC	inactive: -0.143
AATAGATG	inactive: 0.0976
GTTAGTTA	inactive: 0.192

Sequence	PBM E-score
CCCAGCCG	inactive: -0.299
GTACTTTA	inactive: 0.123
CTGCAACC	inactive: -0.0196
AACTGATA	inactive: 0.146
CTCTCCGC	inactive: -0.231
CATTTGAA	inactive: 0.0239
CACTGTCC	inactive: 0.0264
GGACCTTA	inactive: -0.127
CGTACTAG	inactive: 0.107
CCCTAGGC	inactive: -0.196
TAGTGAAA	inactive: 0.126
AAAAGTTC	inactive: 0.0847
GGTACCAA	inactive: 0.0374
AAACTCTG	inactive: 0.024
CGGGCACC	inactive: -0.188
AGAGGCGG	inactive: -0.193
ATGACCGA	≥ 0.0243
CTACCCGA	inactive: -0.0664
CGCAAGTC	inactive: -0.0559
AGTGTATC	inactive: 0.186
CCCTTGCG	inactive: -0.163
TATACCCA	inactive: -0.0655
ATGCGTAA	inactive: 0.0731
CGGGTATA	inactive: 0.0282
AGAGCACT	inactive: -0.112

Sequence	PBM E-score
AGGGTCGG	inactive: -0.154
AGCCTATA	inactive: -0.0255
GCCCACTA	inactive: -0.0581
CATAAGGG	inactive: -0.078
GAAACACC	inactive: 0.116
CCGCTGGC	inactive: -0.222
AGTGAGAT	inactive: -0.0217
AATTGATC	inactive: 0.0461
AGTCCCCG	inactive: -0.156
GAAACAAC	inactive: 0.161
ACTTTCTA	≥ 0.0685
CGAGCTGC	inactive: -0.142
TAAGACCA	inactive: 0.0445
GGTCTAAA	inactive: -0.0393
CTCCACCA	inactive: -0.13
ACATACGG	inactive: 0.14
GGACCAGA	inactive: -0.104
AATACTGA	inactive: 0.143
AATGGCAT	inactive: 0.0414
GGAGGACA	inactive: 0.0978
ATGCTTCA	inactive: 0.061
GGGGGCTA	inactive: -0.254
AGAACTGG	inactive: -0.0455
AACGACCA	inactive: 0.102
CGTCGGAC	inactive: -0.119

Sequence	PBM E-score
TACAGGGA	inactive: 0.0542
AAGCGACC	inactive: 0.0153
GGTAGGCA	inactive: -0.105
AATTTCCA	≥ 0.145
CACGCAAA	inactive: 0.0933
CAGCTTAC	inactive: 0.0155
ATCGTACC	inactive: -0.0488
AAGTCCAA	inactive: 0.025
AGCTGCTC	inactive: -0.0828
GGGACTAA	inactive: -0.0755
AAAGGTGC	inactive: -0.0982
GCACGGAA	inactive: -0.0343
GCGCATCA	inactive: -0.0471
CGAGTTGA	inactive: 0.0454
AGGTAGAA	inactive: 0.0148
AAAAGGGC	inactive: -0.109
CTAGACCA	inactive: -0.0808
CTGGTCAA	inactive: -0.0384
CCGTACCG	inactive: -0.141
ATTTAGAA	inactive: 0.00688
AAGCGGCC	inactive: -0.218
CGGCCTGA	inactive: -0.21
ATACACCG	inactive: 0.184
ATATTATA	inactive: 0.259
ACGGAAGA	inactive: -0.0381

Sequence	PBM E-score
AGACCATC	inactive: -0.0686
GAGGATGA	inactive: -0.0942
CAGGTCTA	inactive: 0.0239
CCGGTCTA	inactive: -0.187
AGGAGCTC	inactive: -0.187
AACCATTA	≥ 0.182
AGCTCCGG	inactive: -0.212
CTACGACC	inactive: 0.0644
CACTCCTC	inactive: -0.106
CAGTGTAA	inactive: 0.218
GACAAAGA	inactive: 0.13
GGCACAAA	inactive: -0.0114
GGACCCAC	inactive: -0.208
CACGAGCG	inactive: -0.124
CGGCGCTC	inactive: -0.225
TCGCGTAA	inactive: 0.0536
AGAAATCG	inactive: 0.00457
GACTCATA	inactive: 0.0435
CTGATACC	inactive: 0.163
GTCCAGCA	inactive: -0.0366
AGTCTCGA	inactive: -0.00595
CTTCTCCC	inactive: -0.201
CGGTGCTC	inactive: -0.149
CACTCACG	inactive: -0.0531
ACATACTG	inactive: 0.245

Sequence	PBM E-score
CAGGCCCG	inactive: -0.295
AACGGAAA	inactive: -0.0287
ATAATACG	inactive: 0.142
CTTGGAGA	inactive: -0.0308
CCTAATCG	inactive: 0.0782
CTTTTGAA	inactive: -0.0687
CGCGAAAA	inactive: -0.0881
ACTAACAC	inactive: 0.279
AGTTAAGC	inactive: 0.0239
AACGCATC	inactive: -0.0164
AAAGATAG	inactive: -0.0157
CTAATGAA	inactive: -0.00561
AAGTCTCA	inactive: -0.0571
GAGACTAA	inactive: 0.0224
CTAGTCAG	inactive: 0.0696
GCCGCGGA	inactive: -0.221
GCGGGTCA	inactive: -0.0841
AGCCGTTA	inactive: -0.0603
CGGGCAGC	inactive: -0.219
CACCCGCG	inactive: -0.124
CGGATCCG	inactive: -0.166
GGCCCTAA	inactive: -0.168
AGATGGTC	inactive: -0.0504
CAGAGTCA	inactive: -0.0248
TATTCCCA	inactive: 0.0129

Sequence	PBM E-score
AACTACGG	inactive: 0.0675
CGATCTTC	inactive: -0.103
CAGCCCAG	inactive: -0.167
AGGAGGTC	inactive: -0.142
AACGCTCT	inactive: -0.0982
CCCCGTTA	inactive: -0.12
AAATTTGA	inactive: 0.0791
CTTACAAG	active: 0.343
GTACTGAC	inactive: 0.0859
GCGATTCC	inactive: -0.126
ACATACCT	≥ 0.303
CCCTCTAC	inactive: -0.103
AATGATTC	inactive: 0.129
AGCCCGCA	inactive: -0.167
ACCTGAGA	inactive: -0.0651
TCGGAGCA	inactive: -0.0994
CCGAACCA	inactive: -0.153
AAATGCCG	inactive: -0.0646
AAAAGGAC	inactive: 0.0342
AACCACTG	inactive: 0.113
ACCGCAGT	≥ -0.0174
GAGCCCGA	inactive: -0.0794
ACCGACCC	inactive: -0.184
